# Laboratory results taken from PMC4336329 (PLoS ONE, 2015).
# About 2,200 (0.71%) of roughly 310,000 compounds showed an effect of 50% or more. The effect is printed as a negative number. Some of the results follow.
# Biological target: human ether-à-go-go-related gene (hERG) potassium channel (human, UniProt Q12809)
# Assay: primary screen, population patch clamp on CHO cells stably expressing hERG
# human ether-à-go-go-related gene (hERG) potassium channel, sequence (Q12809 whole entry, looked up): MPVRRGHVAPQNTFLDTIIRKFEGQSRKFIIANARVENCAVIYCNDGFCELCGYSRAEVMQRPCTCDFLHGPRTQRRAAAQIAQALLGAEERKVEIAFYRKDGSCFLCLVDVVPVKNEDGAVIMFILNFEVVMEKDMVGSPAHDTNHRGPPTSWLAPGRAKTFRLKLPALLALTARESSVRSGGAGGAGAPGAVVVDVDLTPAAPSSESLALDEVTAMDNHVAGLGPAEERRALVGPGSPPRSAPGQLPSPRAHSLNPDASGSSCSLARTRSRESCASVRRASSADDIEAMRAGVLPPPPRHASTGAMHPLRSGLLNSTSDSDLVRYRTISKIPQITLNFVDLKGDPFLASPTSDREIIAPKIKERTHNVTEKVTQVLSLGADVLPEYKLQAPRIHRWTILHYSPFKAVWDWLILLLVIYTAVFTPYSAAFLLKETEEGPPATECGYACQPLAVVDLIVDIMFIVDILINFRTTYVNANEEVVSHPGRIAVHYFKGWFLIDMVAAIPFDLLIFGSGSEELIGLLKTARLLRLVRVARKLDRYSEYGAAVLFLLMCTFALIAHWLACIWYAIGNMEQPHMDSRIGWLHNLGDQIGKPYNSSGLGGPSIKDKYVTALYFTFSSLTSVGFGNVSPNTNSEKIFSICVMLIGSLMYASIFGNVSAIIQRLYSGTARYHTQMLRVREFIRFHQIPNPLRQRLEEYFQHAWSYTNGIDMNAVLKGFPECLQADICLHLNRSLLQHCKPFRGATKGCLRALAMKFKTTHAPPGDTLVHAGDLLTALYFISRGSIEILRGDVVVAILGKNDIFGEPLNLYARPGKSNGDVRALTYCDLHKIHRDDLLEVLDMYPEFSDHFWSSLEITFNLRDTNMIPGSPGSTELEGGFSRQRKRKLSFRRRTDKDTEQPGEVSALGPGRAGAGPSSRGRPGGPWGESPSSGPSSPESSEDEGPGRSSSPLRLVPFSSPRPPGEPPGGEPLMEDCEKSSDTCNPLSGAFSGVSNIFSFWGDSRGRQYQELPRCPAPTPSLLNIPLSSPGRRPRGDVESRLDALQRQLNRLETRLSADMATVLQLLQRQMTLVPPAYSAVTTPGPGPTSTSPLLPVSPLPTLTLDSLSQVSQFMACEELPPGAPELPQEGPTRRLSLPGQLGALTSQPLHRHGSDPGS
row,SMILES,"hERG current change (%, negative = inhibition) at 1uM [%]"
1,CC(C)(C)c1ncc(S(=O)(=O)c2ccc(C(F)(F)F)cn2)c(N)n1,2.14
2,CC1CC(C)CN(CCCNC(=O)c2cc3c(s2)-c2ccccc2OC3)C1 (stereo not shown),-5.87
3,CCc1ccccc1SCc1noc(C(=O)NCC2CCCO2)c1C(=O)O (stereo not shown),14.3
4,CC(O)c1ccc(-n2cnnn2)cc1 (stereo not shown),13.3
5,CCOC(=O)N1CCN(C(=O)CSc2nnc(-c3cc(OC)cc(OC)c3)o2)CC1,6.37
6,COc1ccc(/C(CC2(O)C(=O)Nc3ccccc32)=N\O)cc1 (stereo not shown),12.7
7,CC1(C)Oc2ccc(C(=O)NC3CCCCC3)cc2N(CC#N)C1=O,18
8,OCC[C@@H]1C[C@@H](O)[C@H](O)[C@@]2(Cc3ccccc3O2)O1,8.44
9,Cc1onc(-c2ccccc2)c1C(=O)NCc1cccnc1,4.06
10,C=CCNC(=O)C1CC2Cn3c(nc4ccccc43)C2N1C (stereo not shown),2.65
11,COc1cccc(/C=N/NC(=O)CC(C)O)c1OC/C=C/c1ccccc1 (stereo not shown),11.9
12,COc1ccc(S(=O)(=O)Nc2cccc(S(=O)(=O)N3CCCC3)c2)cc1OC,-5.99
13,O=C(c1ccc(CS(=O)(=O)c2ccc(Br)cc2)o1)N1CCCC1,-9.31
14,O=C(CCCc1ccccc1)Nc1cccc(C(=O)O)c1,14.5
15,COc1ccc(OC)c(N2C(=O)NC(=O)/C(=C\c3ccc([N+](=O)[O-])s3)C2=O)c1,17.4
16,O=C(O)c1c(Cl)c(Cl)c(Cl)c(Cl)c1C(=O)N1CCCCCC1,16.4
17,CCn1c(SCC(=O)Nc2cc(OC)ccc2OC)nnc1C1CCCCC1,4.98
18,O=C(Nc1ccccc1N1CCCCC1)c1ccc(Cl)c([N+](=O)[O-])c1,16.1
19,Cc1ccc(NC(=O)Cn2nc(C)c([N+](=O)[O-])c2C)cc1C,1.3
20,O=c1c(-c2ccccc2)c(O)cc(-c2ccncc2)n1-c1ccc(Cl)cc1,11.7
21,C=CCn1c(SCC(=O)c2ccc(O)c(O)c2)nnc1-c1cccc(Cl)c1,11.9
22,CCCCC1=CC2=CC(=O)C(C)(OC(=O)CC)C(=O)C2=CN1C(CO)CO (stereo not shown),11

row,SMILES,"hERG current change (%, negative = inhibition) at 1uM [%]"
1,CCN(CC)NC(=O)Nc1ccccc1,17.5
2,c1ccc(OCCSc2ncnc3nc[nH]c23)cc1,2.64
3,O.O=C(CCc1ccc(O)cc1)c1c(O)cc(O)cc1O[C@@H]1O[C@H](CO)[C@@H](O)[C@H](O)[C@H]1O,5.59
4,Cc1nn(C)cc1C1C(C#N)=C(N)N(c2ccc(F)c([N+](=O)[O-])c2)C2=C1C(=O)CCC2 (stereo not shown),12.3
5,COc1ccccc1C(=O)Nc1ccc(C(=O)Nc2ccccc2C(=O)O)cc1,15.2
6,O=C(NCCc1ccc(Cl)cc1)c1cc(=O)[nH]c2ccccc12,10.9
7,O=C(O)c1ccc(Nc2ccc([N+](=O)[O-])c3nonc23)cc1,15.5
8,CC1(C)CC(=O)C(C=Nc2ccc(O)cc2)=C(O)C1,8.57
9,CC1(C)S[C@@H]2[C@H](NC(=O)Cc3ccccc3)C(=O)N2[C@H]1C(=O)[O-].[K+],9.11
10,NC(=O)CSc1nnnn1-c1ccc(OC(F)(F)F)cc1,-8.07
11,CCN(CCO)Cc1cc(=O)oc2c(C)c(C)ccc12,7.31
12,CSCCC(NS(=O)(=O)c1ccccc1F)C(=O)Nc1cccc(C)n1 (stereo not shown),8.96
13,CCCCN(C(=O)c1cc(S(=O)(=O)N2CCCCCC2)ccc1OC)c1ccccc1,-1.19
14,CC1(C)CC(=O)c2sc(NC(=O)c3ccccc3)nc2C1,16.4
15,CN(CC(O)COc1ccc2ccccc2c1)C1CCCCC1.Cl (stereo not shown),-5.03
16,O=C(O)CSCC(=O)Nc1ccc(Cl)cc1C(F)(F)F,4.34
17,COc1ccc(CC(=O)OCC(=O)NCCc2ccccc2)cc1OC,7.46
18,CCCn1nnc(NC(=O)c2cccc(OCC(C)C)c2)n1,8.53
19,Cc1nn(CC(=O)Nc2cc(S(=O)(=O)N(C)C)ccc2Cl)c(C)c1[N+](=O)[O-],3.62
20,Cc1ccc(NC(=O)c2ccc(S(=O)(=O)N3CCOCC3)cc2)cc1,15.3
21,CCc1ccc(NC(=O)CCC(=O)Nc2nnc(C(C)C)s2)cc1,15.8
22,O=C1/C(=C/c2cccc(Cl)c2)CSc2sccc21,16

row,SMILES,"hERG current change (%, negative = inhibition) at 1uM [%]"
1,NS(=O)(=O)c1ccc(CNC(=O)c2cc(=O)[nH]c3ccccc23)cc1,11.5
2,CCOC(=O)N1CCN(c2c(NCCCN(C)c3ccccc3)c(=O)c2=O)CC1,9.53
3,COC(=O)c1ccc2c(c1)C(C)(C)C(/C=C/c1ccccc1O)=[N+]2C.[I-],-7.78
4,COc1cc(SC)ccc1C(=O)N1CCCCCC1,15.5
5,O=C(c1ccco1)N1CCN(Cc2cc(=O)c(OCc3c(F)cccc3Cl)co2)CC1,7.1
6,CCCCCC(=O)N(O)C1CC(=O)N(c2ccccc2)C1=O (stereo not shown),4.32
7,Cc1cccc(NC(=O)CC2C(=O)NCCN2C(=S)Nc2ccccc2)c1 (stereo not shown),9.08
8,Cc1cccc(Cn2cnc3c(nnn3Cc3ccc(F)cc3)c2=O)c1,-0.799
9,CN(Cc1cn(-c2ccccc2)nc1-c1cc2ccccc2o1)C(=O)CCC(=O)O,8.53
10,CCCC1(C(=O)OC)NC(c2ccco2)C2C(=O)N(C)C(=O)C21 (stereo not shown),16.1
11,CC1=NNC(=O)C1CC(=O)N/N=C/c1ccc(C)o1 (stereo not shown),9.85
12,COc1ccc(CCN=C(N)NS(=O)(=O)c2ccc(C)c(C)c2)cc1OC,11.4
13,Nc1c(C(=O)OCC(=O)Nc2ccc(Cl)cc2[N+](=O)[O-])[nH]c(=O)[nH]c1=O,1.42
14,COC(=O)C(C)Sc1nc2c(c(=O)[nH]c(=O)n2C)n1CCCc1ccccc1 (stereo not shown),-70.1
15,C[N+](C)(C)c1ccccc1.[I-],18.4
16,O=C(Nc1ccccc1Oc1ccsc1C(=O)O)c1ccccc1,12.9
17,Cc1cc(C)cc(NC(=O)N2CCCC2C(=O)Nc2ccc(-n3cnnn3)c(C)c2)c1 (stereo not shown),8.19
18,O=C(COc1ccc(S(=O)(=O)N2CCOCC2)cc1)Nc1ccc(Cl)c(C(F)(F)F)c1,5.74
19,Cc1ccc(-c2nnn(CC(=O)N(c3ccccc3)C(C(=O)NCC3CCCO3)c3cccs3)n2)o1 (stereo not shown),19.7
20,COc1ccc(NC(=O)CN(c2ccc(OC)c(Cl)c2)S(=O)(=O)c2ccccc2)cc1,5.41
21,O=C(NCc1ccccc1Cl)C1CCCN(c2ncnc3c2nc2n3CCCCC2)C1 (stereo not shown),-1.05
22,CCN(CCNC(=O)c1ccc(CSc2nc3ccncc3[nH]2)cc1)c1ccccc1,14.2

row,SMILES,"hERG current change (%, negative = inhibition) at 1uM [%]"
1,COc1cccc(-n2nnnc2SCC(=O)Nc2cccc(NC(C)=O)c2)c1,7.35
2,Cc1ccc(OC(C)C)c(CN(CCO)CCO)c1.Cl,14.2
3,CC1(CCc2ccccc2)NC(=O)N(CC(=O)Nc2ccc(S(N)(=O)=O)cc2)C1=O (stereo not shown),0.478
4,COc1ccc(C(=O)N/C(=C\c2cc(OC)c(OC)cc2[N+](=O)[O-])C(=O)NCC(=O)O)cc1,19.6
5,O=C(NC1CCCCCC1)c1ccc(OCC2CCCO2)cc1 (stereo not shown),11.2
6,Cc1ccc(-c2cc(=O)c3ccccc3[nH]2)cc1,13.4
7,COc1ccc(NC(=O)Cn2nnc(C(N)=O)c2N)c(OC)c1,-0.969
8,Cc1c(NC(=O)Nc2ccccc2Cl)c(=O)n(-c2ccccc2)n1C,7.87
9,CNS(=O)(=O)c1cccc(C(=O)OCC(=O)N(CCC#N)c2ccccc2)c1,13.3
10,CC(=O)c1cc(-c2ccccc2)n(CC(=O)N2CCN(C3CCCC3)CC2)c1C,3.41
11,CCOC(=O)C(=CNc1cc(Cl)c(-c2ccco2)c(Cl)c1)C(=O)OCC,5.64
12,N#CCSc1nc2ccccc2c(=O)n1CCC(=O)NCCc1ccccc1,16.2
13,O=C1C(=O)N(CCCN2CCOCC2)C(c2ccc([N+](=O)[O-])cc2)/C1=C(\O)c1ccc2c(c1)OCCO2 (stereo not shown),5.45
14,CCCN(C(=O)/C=C/c1ccco1)c1c(N)n(Cc2ccccc2)c(=O)[nH]c1=O,19.2
15,N#Cc1c2n(c(=O)[nH]c1=O)CCCCC2,13.7
16,CCOC(=O)C1CCCN(S(=O)(=O)CCNC(=O)c2ccccc2)C1 (stereo not shown),7.73
17,O=C(NCCN1CCCCC1)Nc1ccc(Br)cc1,-9.32
18,C/C(=N\NC(N)=O)c1cccc(Cl)c1,13.1
19,COc1ccc(/C=N/n2nnnc2N)cc1OC,14.7
20,COc1ccc(NS(=O)(=O)c2ccc(NC(=S)NC(=O)c3ccc(F)cc3)cc2)nn1,1.47
21,COC(=O)c1ccc(NC(=O)CN2C(=O)c3ccccc3S2(=O)=O)cc1,16.9
22,O=C(CCNC(=O)c1ccc(Br)cc1)NNC(=O)C1COc2ccccc2O1 (stereo not shown),-8.34
